# The supplement of paper PMC8728848
# Some of the results follow.
# B1: GSL-I-B4 (Griffonia simplicifolia) (protein)
# chain: NFWSDVEDSIIFQGDANTTAGTLQLCKTNQYGTPLQWSAGRALYSDPVQLWDNKTESVASFYTEFTFFLKITGNGPADGLAFFLAPPDSDVKDAGEYLGLFNKSTATQPSKNQVVAVEFDTWTNPNFPEPSYRHIGINVNSIVSVATKRWEDSDIFSGKIATARISYDGSAEILTVVLSYPDGSDYILSHSVDMRQNLPESVRVGISASTGNNQFLTVYILSWRFSSNLQSTSVKAAMEPEITRTVV
# Legend:
# Assay in all cases: glycan array binding signal (z-score within array); higher = stronger binding
# Conditions in all cases: glycan notation: IUPAC condensed, linker removed
# Neu5Ac(a2-8)Neu5Ac = molecular target: Neu5Ac(a2-8)Neu5Ac
# Method in brief: (§1)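 The binding signal is a Z-score computed within each array and averaged over linkers. Arrays of the same protein sequence at different concentrations or buffers were also averaged together. Data originate from 3228 arrays in the Consortium for Functional Glycomics database, kept only where the protein sequence was available.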
# [1] = molecular target: Neu5Ac(a2-8)Neu5Ac(a2-3)Gal(b1-3)GalNAc(b1-4)[Neu5Ac(a2-3)]Gal(b1-4)Glc
# Method in brief: as §1
# [2] = molecular target: Neu5Ac(a2-8)Neu5Ac(a2-3)Gal(b1-3)GalNAc(b1-4)[Neu5Ac(a2-8)Neu5Ac(a2-3)]Gal(b1-4)Glc
# Method in brief: as §1
# [3] = molecular target: Neu5Ac(a2-8)Neu5Ac(a2-3)Gal(b1-4)Glc
# Method in brief: as §1
# [4] = molecular target: Neu5Ac(a2-8)Neu5Ac(a2-3)Gal(b1-4)GlcNAc
# Method in brief: as §1
# [5] = molecular target: Neu5Ac(a2-8)Neu5Ac(a2-3)[Gal(b1-3)GalNAc(b1-4)]Gal(b1-4)Glc
# Method in brief: as §1
# [6] = molecular target: Neu5Ac(a2-8)Neu5Ac(a2-3)[GalNAc(b1-4)]Gal(b1-4)Glc
# Method in brief: as §1
# [7] = molecular target: Neu5Ac(a2-8)Neu5Ac(a2-8)Neu5Ac
# Method in brief: as §1
# [8] = molecular target: Neu5Ac(a2-8)Neu5Ac(a2-8)Neu5Ac(a2-3)Gal(b1-4)Glc
# Method in brief: as §1
# [9] = molecular target: Neu5Ac(a2-8)Neu5Ac(a2-8)Neu5Ac(a2-3)[Gal(b1-3)GalNAc(b1-4)]Gal(b1-4)Glc
# Method in brief: as §1
# [10] = molecular target: Neu5Ac(a2-8)Neu5Ac(a2-8)Neu5Ac(a2-3)[GalNAc(b1-4)]Gal(b1-4)Glc
# Method in brief: as §1
# [11] = molecular target: Neu5Ac(a2-8)Neu5Ac(a2-8)Neu5Ac(a2-8)Neu5Ac(a2-3)[GalNAc(b1-4)]Gal(b1-4)Glc
# Method in brief: as §1
# [12] = molecular target: Neu5Ac(a2-8)Neu5Gc(a2-3)Gal(b1-4)GlcNAc
# Method in brief: as §1
# [13] = molecular target: Neu5Ac(b2-6)Gal(b1-4)GlcNAc
# Method in brief: as §1
# Neu5Ac(b2-6)GalNAc = molecular target: Neu5Ac(b2-6)GalNAc
# Method in brief: as §1
# [14] = molecular target: Neu5Ac9Ac(a2-3)Gal(b1-3)GlcNAc
# Method in brief: as §1
# [15] = molecular target: Neu5Ac9Ac(a2-3)Gal(b1-4)GlcNAc
# Method in brief: as §1
# [16] = molecular target: Neu5Ac9Ac(a2-6)Gal(b1-4)GlcNAc
# Method in brief: as §1
# [17] = molecular target: Neu5Gc(a2-3)Gal(b1-3)GlcNAc
# Method in brief: as §1
# [18] = molecular target: Neu5Gc(a2-3)Gal(b1-3)[Fuc(a1-4)]GlcNAc
# Method in brief: as §1
# Neu5Gc(a2-3)Gal(b1-4)Glc = molecular target: Neu5Gc(a2-3)Gal(b1-4)Glc
# Method in brief: as §1
# [19] = molecular target: Neu5Gc(a2-3)Gal(b1-4)GlcNAc
# Method in brief: as §1
# [20] = molecular target: Neu5Gc(a2-3)Gal(b1-4)GlcNAc(b1-3)Gal(b1-4)GlcNAc(b1-2)Man(a1-3)[Neu5Gc(a2-3)Gal(b1-4)GlcNAc(b1-3)Gal(b1-4)GlcNAc(b1-2)Man(a1-6)]Man(b1-4)GlcNAc(b1-4)GlcNAc
# Method in brief: as §1
# [21] = molecular target: Neu5Gc(a2-3)Gal(b1-4)[Fuc(a1-3)]GlcNAc
# Method in brief: as §1
# [22] = molecular target: Neu5Gc(a2-6)Gal(b1-4)GlcNAc
# Method in brief: as §1
# Neu5Gc(a2-6)GalNAc = molecular target: Neu5Gc(a2-6)GalNAc
# Method in brief: as §1
# [23] = molecular target: Neu5Gc(a2-8)Neu5Ac(a2-3)Gal(b1-4)GlcNAc
# Method in brief: as §1
# [24] = molecular target: Neu5Gc(a2-8)Neu5Gc(a2-3)Gal(b1-4)GlcNAc
# Method in brief: as §1
# [25] = molecular target: Neu5Gc(a2-8)Neu5Gc(a2-3)Gal(b1-4)GlcNAc(b1-3)Gal(b1-4)GlcNAc
# Method in brief: as §1
# [26] = molecular target: Neu5Gc(a2-8)Neu5Gc(a2-6)Gal(b1-4)GlcNAc
# Method in brief: as §1
# [27] = molecular target: Neu5Gc(b2-6)Gal(b1-4)GlcNAc
# Method in brief: as §1
binder,measurement,setting,value
B1,glycan array binding signal (z-score),Neu5Ac(a2-8)Neu5Ac,-0.134
same,glycan array binding signal (z-score),[1],-0.089
same,glycan array binding signal (z-score),[2],-0.227
same,glycan array binding signal (z-score),[3],-0.205
same,glycan array binding signal (z-score),[4],-0.154
same,glycan array binding signal (z-score),[5],-0.199
same,glycan array binding signal (z-score),[6],-0.224
same,glycan array binding signal (z-score),[7],-0.144
same,glycan array binding signal (z-score),[8],-0.113
same,glycan array binding signal (z-score),[9],-0.092
same,glycan array binding signal (z-score),[10],-0.151
same,glycan array binding signal (z-score),[11],-0.128
same,glycan array binding signal (z-score),[12],-0.18
same,glycan array binding signal (z-score),[13],-0.199
same,glycan array binding signal (z-score),Neu5Ac(b2-6)GalNAc,-0.2
same,glycan array binding signal (z-score),[14],-0.176
same,glycan array binding signal (z-score),[15],-0.134
same,glycan array binding signal (z-score),[16],-0.205
same,glycan array binding signal (z-score),[17],-0.171
same,glycan array binding signal (z-score),[18],-0.186
same,glycan array binding signal (z-score),Neu5Gc(a2-3)Gal(b1-4)Glc,-0.183
same,glycan array binding signal (z-score),[19],-0.151
same,glycan array binding signal (z-score),[20],-0.168
same,glycan array binding signal (z-score),[21],-0.163
same,glycan array binding signal (z-score),[22],-0.157
same,glycan array binding signal (z-score),Neu5Gc(a2-6)GalNAc,-0.212
same,glycan array binding signal (z-score),[23],-0.183
same,glycan array binding signal (z-score),[24],-0.155
same,glycan array binding signal (z-score),[25],-0.181
same,glycan array binding signal (z-score),[26],-0.141
same,glycan array binding signal (z-score),[27],-0.151
